# Assay results from the antibiotic and cytotoxicity screens of Wong et al. (2023).
# The list shows a part of the results.
# Columns and labels:
# HSkMC = human skeletal muscle cells; test: cytotoxicity call (relative viability < 0.9); settings: 10 µM
# HepG2 = test: cytotoxicity call (relative viability < 0.9); settings: 10 µM
# S. aureus RN4220 = test: growth inhibition call (relative growth <= 0.2); settings: 50 µM
Compound,cytotoxicity call (HSkMC),cytotoxicity call (HepG2),growth inhibition call (S. aureus RN4220)
Cc1ccc(S(=O)(=O)Nc2ccc3c(c2)C(=O)N([C@@H](C)CO)C[C@@H](C)[C@H](CN(C)S(=O)(=O)c2ccc(F)cc2)OCCCC[C@@H](C)O3)cc1,inactive,inactive,inactive
C[C@@H]1CN([C@@H](C)CO)C(=O)Cc2cc(NC(=O)Nc3ccc(C(F)(F)F)cc3)ccc2O[C@H]1CN(C)Cc1ccc(C(F)(F)F)cc1,active,active,inactive
CNC(=O)c1c(C)noc1C,inactive,inactive,inactive
Cc1nn(CC(=O)O)c(=O)c2cccn12,inactive,inactive,inactive
C[C@@H]1CN([C@@H](C)CO)C(=O)c2cc(NC(=O)Nc3ccc(C(F)(F)F)cc3)ccc2O[C@@H](C)CCCCO[C@H]1CN(C)C(=O)Cc1ccccc1,active,inactive,inactive
COc1ccc(NC(=O)Nc2ccc3c(c2)C(=O)N([C@@H](C)CO)C[C@@H](C)[C@@H](CN(C)Cc2ccccc2)OCCCC[C@@H](C)O3)cc1,inactive,active,inactive
CCN(CCO)C(=O)C1CN(C(C)=O)C1,inactive,inactive,inactive
C[C@H](CO)N1C[C@H](C)[C@@H](CN(C)Cc2ccc(Oc3ccccc3)cc2)Oc2c(NC(=O)CCCCCC(=O)Nc3ccccc3N)cccc2C1=O,inactive,inactive,inactive
C/C=C1\[C@H](O[C@@H]2O[C@H](CO)[C@@H](O)[C@H](O)[C@H]2O)OC=C(C(=O)OC)[C@H]1CC(=O)OC,inactive,inactive,inactive
CN1C(=O)OC(C)(C)C1=O,inactive,inactive,inactive
